Measurements published in the BET-seq Pho4 binding data (Le et al. 2018).
The list shows a part of the results. These are noisy estimates, calculated here from bound and input reads.

target: T1, Pho4 (S. cerevisiae) (UniProt P07270); assay: relative binding free energy (BET-seq); higher = weaker binding; conditions: reference: library average
T1 sequence: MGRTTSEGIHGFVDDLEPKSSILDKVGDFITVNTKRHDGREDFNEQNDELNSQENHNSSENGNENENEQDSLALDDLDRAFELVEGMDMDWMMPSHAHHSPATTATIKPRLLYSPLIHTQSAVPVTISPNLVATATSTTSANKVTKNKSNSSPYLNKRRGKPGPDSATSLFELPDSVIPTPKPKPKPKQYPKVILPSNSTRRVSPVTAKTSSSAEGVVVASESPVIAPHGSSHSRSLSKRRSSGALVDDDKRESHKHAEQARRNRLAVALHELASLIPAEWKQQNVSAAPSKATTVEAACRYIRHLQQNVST

Sequence | relative binding free energy [kcal/mol]
TTGGACACGTGATGTC | 0.22
ACTTTCACGTGGTAGT | 0.33
TTAGACACGTGTTTGT | -0.06
TAGAGCACGTGGGCGT | -0.26
GGGGCCACGTGTCTAG | 0.04
GGATTCACGTGGTCGA | 0.33
TGTAGCACGTGCCGTG | -0.18
GTGGACACGTGCTTTA | -0.02
GGGGGCACGTGAGCCG | 0.1
TAGGGCACGTGCGATG | -0.2
GGTGACACGTGATGCG | 0.23
TTGCTCACGTGTATGA | 0.15
TGGTTCACGTGACTAT | 0.35
TTAATCACGTGCGTGT | 0.03
TGTGGCACGTGCGGTA | -0.09
CGCATCACGTGTGGGG | 0.28
TGAAGCACGTGCTGAT | 0.01
ACGGTCACGTGTTTTG | 0.06
TGAGACACGTGGAGGC | 0.02
GTGCACACGTGGGGAG | 0.01
GTGTGCACGTGAAAGG | 0.15
GGGATCACGTGTTTGA | 0.08
TGAGGCACGTGTGCTT | -0.03

Sequence | relative binding free energy [kcal/mol]
CGTATCACGTGTGTAG | 0.13
GTTAGCACGTGGGACT | -0.01
GTCATCACGTGTGTGT | 0.15
TGGGGCACGTGGCCCG | -0.25
GTGGCCACGTGGTGGT | -0.01
TACCGCACGTGGTGGG | -0.05
TCTTGCACGTGTTATA | -0.06
TCAGTCACGTGCTTGG | 0.02
GCTTGCACGTGAGGCG | 0.2
TAGTTCACGTGCGTGG | 0.09
AATCACACGTGGGTGT | -0.02
ATTTGCACGTGAGTAT | 0.21
AGGTGCACGTGATCTG | 0.05
CTTATCACGTGGTTAG | 0.13
CAGTGCACGTGTGGCT | 0.02
GGTCACACGTGTTGGC | 0.17
CTTTTCACGTGGTGGG | 0.14
GTTGGCACGTGTCGTT | 0.04
GGCATCACGTGTTTTA | 0.24
TTAGTCACGTGGGTAC | 0.08
TGCGGCACGTGATTTA | 0
TTATGCACGTGGCCGT | -0.1
TGAGGCACGTGTAACG | 0.04

Sequence | relative binding free energy [kcal/mol]
ATTTACACGTGTTTCT | -0.03
ATTTACACGTGCAGTG | 0.19
AGTTGCACGTGCTTTA | -0.12
CGTGTCACGTGTGTTA | 0.14
GATAGCACGTGATAGT | 0.13
GTGGGCACGTGCGATA | -0.14
TTTAGCACGTGAGTGG | 0.15
TAACGCACGTGTGGGA | -0.02
CGTGGCACGTGCTGAG | -0.16
TTGTTCACGTGCGCGT | 0.16
ATTATCACGTGCGTTG | 0.03
TAAGACACGTGAGGGT | 0.16
AGGATCACGTGTATTA | 0.07
GAAATCACGTGGTTAG | 0.26
GGTTGCACGTGTCGGT | 0.01
ATAGGCACGTGGTATA | -0.18
CAGAGCACGTGTGTTG | 0.04
CTTTACACGTGTTTAT | -0.1
AGGCTCACGTGGTCGG | 0.15
AAGAGCACGTGGGTAA | -0.23
ATTTTCACGTGGTTGC | 0.28
ATGTGCACGTGACAGT | 0.16
CATTTCACGTGGTTTA | 0.3

Sequence | relative binding free energy [kcal/mol]
ATCATCACGTGTGTAT | 0.05
TCTTGCACGTGGTGAT | -0.1
CAAGGCACGTGGGGTA | -0.2
GTTAGCACGTGGTACG | -0.14
CGTTCCACGTGGGGGA | -0.11
ATTTACACGTGGGGAG | 0.06
AAGCGCACGTGGGGGA | -0.2
TGTCTCACGTGTTTAT | 0.19
GTTTTCACGTGTGAGC | 0.36
GGTTTCACGTGTCTCT | 0.38
GTAGACACGTGTCATG | 0.07
AATGACACGTGTGCGG | 0.11
TGTAGCACGTGCGGTC | 0
TAGAGCACGTGAATGT | 0.18
GCGGGCACGTGGTATA | -0.02
TAGGTCACGTGCTAGT | 0.16
TCGTGCACGTGTTTGT | -0.16
GTGCTCACGTGTGCTT | 0.31
AGTTACACGTGGTTTG | 0.03
TCCGGCACGTGTAGGT | 0.06
TGCGGCACGTGTTTAT | -0.12
TCAGTCACGTGATAGG | 0.21
TATGGCACGTGTAATG | 0.06

Sequence | relative binding free energy [kcal/mol]
AATGGCACGTGTGATT | 0.01
GTTAACACGTGAACGT | 0.45
ATTATCACGTGATTGA | 0.21
TAGGGCACGTGTCTGA | -0.23
TGGCTCACGTGTAATG | 0.3
CAATTCACGTGTGGGT | 0.33
TGGTGCACGTGAGGGT | 0.19
TGGGTCACGTGAGGCT | 0.42
TTAGACACGTGGGAGC | -0.05
GGTGCCACGTGTAAGA | 0.1
TAGGCCACGTGATTGG | 0.01
TGTACCACGTGGCTGT | -0.14
TTGGTCACGTGACGTT | 0.2
ATGGGCACGTGCCGGG | -0.2
AGATTCACGTGCGAGT | 0.31
TAGGGCACGTGTTTAT | -0.03
GGGTCCACGTGTTTTG | 0.18
TGAGTCACGTGCTCTG | 0.24
CATGGCACGTGTGATA | -0.07
ATTGGCACGTGTAGAG | -0.09
TTATGCACGTGAGTGC | 0.11
GGGTTCACGTGAGAGC | 0.29
AGTCGCACGTGAGGCA | 0.22
